Source: the supplement of paper PMC10126150
Sequences with one replicate were seen in a single cluster, so their values are uncertain.

Each sequence was assayed on ATP (assay: switch fluorescence ratio, 500 uM ATP over buffer (Cy3 cluster intensity, sum of 5 cycles each) (fold (ratio)); higher = stronger signal-on switching upon ATP binding; sequences stand for … in TCGTCGGCAGCGTCAGATGTGTATAAGAGACAGTTTTTTTTTTTTTTTTTTTTTTTTT…TC). Details: aptamer strand: ATP DNA aptamer (quencher-CACCTGGGGGAGTATTGCGGAGGAAGG + anchor), 100 nM annealed; ATP concentration: 500 uM; one replicate.
How it was run: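 Switching-strand clusters labelled with Cy3 on a modified Illumina MiSeq flow-cell were annealed to 100 nM quencher-labelled ATP aptamer, imaged in selection buffer, and re-imaged after 15 min with 500 uM ATP at 22 °C. This was done over five cycles with NaOH stripping and re-annealing in between. The fluorescence ratio is summed target-cycle over summed buffer-cycle Cy3 intensity per cluster, averaged per switch-domain sequence, excluding clusters outside 100-1000 RFU.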
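Further: ATP exposure 15 min at 22 °C before imaging.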

Sequence	switch fluorescence ratio
AGGATGGCGT	1.04
TTAGCTCTGT	0.972
TTAAGGGTCT	1.03
TGGATCAAGA	1.04
TAATTGAGCT	0.969
AGTCGGACAC	1.02
ACATGACCAG	1.08
CAGGCACAG	1.01
CGATCTAAAC	1.06
CCGGTACTCA	3.21
ATAAATGCGA	1.06
TTATGTTATG	0.987
GTTTTGCCAC	0.98
GTGCGAGGCG	0.979
CAGAGGGATG	1.01
TCCGATCTTG	1.18
GTGGGCCTTC	1.02
TATGGTTGT	0.986
GTAATCATGA	0.985
GCTAAAGTGA	1.01
TCATATTCAC	1
TCGAGAGCTG	1.03
CCGGTTGTAT	1.13

Sequence	switch fluorescence ratio
AATGTAGTTC	0.99
GGTAGTTGAA	0.932
GAGTAAGAAT	1.02
ACGGTCCGAG	1.04
TATCGCGTGC	1.03
ATCCGTAACC	1.59
AAGCCCGTGG	0.973
CGTTCCACCT	1.08
AGCCTCAGGA	1.01
GGTGCTGGTA	1.07
TGTTTTCTTC	1.02
TGAAGAGGGT	0.977
TCGATGCTTG	1.01
ATAAAGCTTT	1.01
CAGATGGCG	0.941
GGAGTCATGC	1.07
GCAGATATGA	1.07
TGAAGGGAAG	0.999
CATGCGTGTG	1.02
CATCACAGCG	0.998
TGAAATTAGC	1
CCATCCCGTA	1.14
AACCACTTGT	1.03

Sequence	switch fluorescence ratio
TGTACCAGTT	1.01
AGGATCTGAT	0.973
CCAGTGTGGG	0.969
GTCTGACTTC	1.02
CGGTCTAGT	0.996
GGGCGGTCTG	1.01
TTCGTGTTAG	1.02
CTCATTATGC	1.12
GGTCTCTCGC	1.01
TGTGGGGTGC	0.967
GGTTCGGATG	0.973
TTGGGCTTCG	1.11
TTATTACCCT	1.04
AGACGGAAAA	0.977
ATAATTATG	0.99
ACCTGGTTT	1
TCCTGGTTGC	1.06
TAATTATGGC	0.972
TCTGGTCCAA	1.03
TTCTTCGCGT	3.49
CAATTTTTAT	1.02
CCCAGCATAG	3.51
ATCAGAAGAT	0.977

Sequence	switch fluorescence ratio
GTAGATGCAA	1.01
GGGAATCTGG	1.02
TCCTAAAACA	0.958
TGTGTAAAAT	1.05
ACTTGCGACG	1.27
TCTACTATGG	1
TGACATTAGA	0.967
TTCGTCTGTG	1
CGGGTATCTA	0.972
TAATATCCCC	1.03
TTATATAC	1.25
CGCTCGGATG	1.04
TAGCTCTTG	1.01
TTTTGACA	1.04
GGCGCCCTGT	0.957
CACTATTGGG	0.959
CCTGAAATCC	1.36
ATGGGGACAC	1.03
TGGTACACTT	0.985
TGTCGGGAT	0.97
GAGGTCCGGT	0.981
CATAGAAGTC	0.988
CCTAGGCACG	1.36

Sequence	switch fluorescence ratio
GTCAATGGGT	1.08
GGTCGACATT	1.02
CAGACTGATT	1.07
CACGACGCTG	1.53
ACGCATAGGT	1.15
ACGCTGAGGA	1.06
TGGCGGTACT	0.997
TCGACTAAGG	0.999
CCTATCGCTT	4.85
GGGAAGTAAT	1
CATTTATA	0.977
GTGGGTCTGG	1.04
GGTCGTACTT	0.972
CTTGAGCCGG	0.999
GAAGTTATTC	0.999
CTAGCGCTGC	0.993
CTTGACAGGC	1.04
CCAAAGATG	0.997
ACCTTTAAGT	1.02
AAGCTTTTTA	1.02
CGTTCATGCT	1.01
AACAGATTAG	1.07
GACCTCGGCT	1.09

Sequence	switch fluorescence ratio
GGGAAGTTAT	1.03
CCGAGGATGA	1.12
CTAATATGTA	1.01
ATTTGTGCAT	1.01
GGCGCGCCGT	0.947
TGATTGTACG	1.03
TTATGCTCGC	1.04
TCCCACTTTT	1.02
ACGTGGGATT	0.996
GGCTTACAAT	0.991
CGGGTCGCCG	1
ATTATCACA	0.992
CCGGATGGGG	0.991
TATTCGGTGT	0.973
TAGGTCCTTC	1.03
GTGTTCAAGA	1.01
TATCTGAGAT	0.993
CTTAATGGGA	0.991
TCCGGTTCAC	1.21
AACCTCACGT	1.47
CTAAACTTTG	0.979
CGGAATGACC	1.18
GTTGCTTTGT	0.986

Sequence	switch fluorescence ratio
AAGGAGAAGT	1.02
ATATTTCGAG	1.07
CGTGCCTGTC	0.984
GTTGGTAGAG	1
TGAACGTAGG	0.983
AAGGCCCCGA	1.01
ATTCTCCTTA	1.02
TTTGCAATGG	1.62
GGTGGATGCA	0.978
AAGCTCGCCA	0.98
ATTCTTACTT	0.962
GAAAAGCGCG	1.02
TTGCTGCT	0.96
GAGGCGATG	1.1
GCAGTCTGTA	0.946
AGCCGTGAGT	0.984
AAGCGTACAT	1.06
TCGGGACCGG	0.986
GTGACGAAAA	1.09
